The source of these data is PubChem BioAssay AID1508623 (National Center for Advancing Translational Sciences (NCATS), 2021).

Hit rate of the full screen: of about 48,000 compounds, about 450 (0.94%) were called active. Another 19% or so got no clear call; they are omitted. The call rests on the fitted dose curve; in most records, active means well fitted inhibition curve with a large enough effect; inconclusive means small, poorly fitted or top-dose-only effect; inactive means no such curve, though single readings can be large or run the other way. Some of the results follow.

This experiment can be described thus: Primary qHTS for Identification of Small Molecule Inhibitors of Huntingtin Promoter Activity. Further: nearly all actives have a fitted effect of over 50% in size. The conditions noted are these: HEK293 HTT promoter firefly luciferase reporter (activity 0% = vehicle and -100% = no light), 24 h; series mostly up to 57.5 µM; activity change, negative = inhibition: at the top concentration. An outline of the steps: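 Luminescence was read after Dual-Glo reagent and a 10 min room-temperature incubation. Values were normalized to vehicle (0% activity) and zero RLU (-100% activity). Reporter HEK293 cells had been exposed to compounds (up to 57.5 uM final) for 24 h.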
A general note: qHTS replaces the single test concentration by a dilution series.
Regarding `Cc1ccccc1N1CCN(S(=O)(=O)c2ccccc2)CC1`, the “activity change, negative = inhibition” value was inactive: 8.54%.
Take `Oc1c(C(c2ccccc2F)N2CCN(c3ccccc3F)CC2)sc2nc(-c3ccco3)nn12` (stereo not given): the “activity change, negative = inhibition” value was inactive: 12.3%.
For `COc1ccccc1Cn1ccn(Cc2ccc(C)cc2)c(=O)c1=O` the value was inactive: -15.1%; for `CN(C)CC[C@H](c1ccc(Cl)cc1)c1ccccn1`, inactive: -4.79%; for `COc1ccc(CNC(=O)CCC2N=C3c4ccccc4N=C(SCc4ccccc4F)N3C2=O)cc1` (stereo not given), inactive: -7.47%.
For `CN(C)CCCNC(=O)c1ccc(-c2cc(O)c3ncccc3c2)cc1` the value was inactive: -17.4%; for `CCOC(=O)C(Cc1ccccc1)NC(=O)CCc1c(C)nc2nc(C)nn2c1C` (stereo not given), inactive: 3.64%; for `O=C(NC1CCCC1)c1ccc2c(=O)n(Cc3ccccc3)c(SCc3cccc([N+](=O)[O-])c3)nc2c1`, inactive: -1.99%.
The figure for `COCCNC(=O)CSc1nc2cc3c(cc2c(=O)n1CCCC(=O)NCc1ccc2c(c1)OCO2)OCO3` is inactive: -15.2%; for `Cc1ccccc1OCc1nc2c3cnn(-c4ccccc4F)c3ncn2n1` it is inactive: -1.8%; for `CCc1ccc(OCC(=O)Nc2cc(-c3ccc(C)cc3)no2)cc1` it is inactive: 65.8%.
Consider `COc1ccc(CNC(=O)CSc2ncc3c(n2)-c2cc(Cl)ccc2N(Cc2ccccc2)S3(=O)=O)cc1`, for which the “activity change, negative = inhibition” value was inactive: -8.73%.
Take `Cc1ccc(Cl)cc1N1CCN(C(=O)Cn2c(-c3cccs3)cc3cc(F)ccc32)CC1`: the “activity change, negative = inhibition” value is inactive: -23.5%.
For the compound `CCOC(=O)Cn1c(=O)cc(C(F)(F)C(F)(F)F)c2c(C)nn(CC)c21`, the “activity change, negative = inhibition” value is inactive: -17.5%.
For `Cc1c(Cl)cccc1NC(=O)N1CCOc2ccccc21` the value was inactive: 11.6%; for `COC(=O)c1sccc1S(=O)(=O)N1CCN(c2ccc(C)cc2C)CC1`, inactive: -17.7%.
For `Cc1ccc(OCC(=O)Nc2ccc3nc(SCC(=O)Nc4ccc(C)cc4C)sc3c2)cc1` the value was inactive: 8.94%; for `COc1cccc(NC(=O)CSc2ncc3c(n2)-c2ccc(Cl)cc2N(C)S3(=O)=O)c1`, inactive: -22.1%; for `CCCNC(=O)c1ccccc1NC(=O)c1nsc2ccccc12`, inactive: 22.4%.
The figure for `CCOc1ccccc1NC(=O)C(=O)NCCc1sc2nc(-c3ccc(OC)cc3)nn2c1C` is inactive: -25.6%.
Take `Cc1ccc(NC(=O)NCCOCCn2c(=O)oc3ccccc32)cc1C`: the “activity change, negative = inhibition” value is inactive: -10.4%.
The figure for `COC(=O)c1ccc(NC(=O)CN2CCN(S(=O)(=O)c3ccc(Br)cc3)CC2)cc1` is inactive: -26.8%; for `COc1ccc(S(=O)(=O)N(CC(=O)Nc2cc(C)ccc2OC)Cc2ccccc2)cc1` it is inactive: -39.4%.
With `Cc1ccc(Cn2c(=O)n(-c3ccc(C)cc3)c(=O)c3c2c2cc(C)ccc2n3C)cc1`, the “activity change, negative = inhibition” value was inactive: -1.75%.
The figure for `CCOc1ccc(CCNC(=O)c2cc3c(=O)n(C)c4ccccc4c3n2C)cc1OCC` is inactive: -10.5%; for `Cc1c(-c2ccc(Cl)cc2)c(=O)oc2c(CN3CCN(CCO)CC3)c(O)ccc12` it is inactive: -21.2%; for `O=C(CSc1cn(CC(=O)N2CCCCC2)c2ccccc12)NCc1ccc(F)cc1` it is inactive: -14.9%.
As for `CCCN(CCC)CCCNC(=O)C1CCN(c2nc3ccc(CC)cc3s2)CC1`, the “activity change, negative = inhibition” value was inactive: 45.3%.
Consider `C[C@@H]1CC(=O)NN=C1c1ccc(NN=C(C#N)C#N)cc1`, for which the activity change, negative = inhibition result is “inactive”.
For `N#C/C(=C\c1cccc(F)c1)c1nc(-c2cc3c(ccc4ccccc43)oc2=O)cs1` the value was inactive: 4.79%.
The figure for `CCOc1cc(C2c3c(oc4cc(C)cc(C)c4c3=O)C(=O)N2CCO)ccc1O` (stereo not given) is inactive: -3.07%.
For `COc1ccc(NC(=O)C2CCN(C(=O)c3sc4nc[nH]c(=O)c4c3C)CC2)cc1Cl`, the “activity change, negative = inhibition” value is inactive: 5.43%.
The figure for `COc1ccccc1NC(=O)CSc1nc2c(oc3ccccc32)c(=O)n1-c1ccccc1F` is inactive: -11.2%; for `Cc1cc2oc(C(=O)N(Cc3ccc(N(C)C)cc3)CC3CCCO3)c(C)c2cc1Cl` (stereo not given) it is inactive: -5.28%; for `O=C(O)c1ccc(OCCN2CCCCC2)cc1` it is inactive: -0.134%.
The figure for `COc1ccc(NC(=O)c2oc3ccccc3c2NC(=O)c2cc(C)cc(C)c2)c(OC)c1` is inactive: -8.95%; for `CCOC(=O)C1CCN(c2nc3ccccc3nc2Cl)CC1` it is inactive: -3.4%.
For `CCc1cccc(NC(=O)c2cc3c(s2)-c2ccccc2OC3)c1` the value was inactive: 14.3%; for `O=C(CN1C(=O)c2cccc3cccc1c23)Nc1cccc(F)c1`, inactive: -16.1%.
For the compound `CN(Cc1ccccc1)c1ccc(-c2nc(-c3ccccc3)no2)cc1[N+](=O)[O-]`, the “activity change, negative = inhibition” value is inactive: -0.939%.
For `C=Cc1ccc(Cn2c(C)c(CNCc3ccc(SC)cc3)c(C(=O)O)c2C)cc1` the value was inactive: -10%; for `COC(=O)c1ccc2c(=O)n3nc(Nc4cc(OC)ccc4OC)sc3nc2c1`, inactive: -8.82%.
The figure for `Cc1ccccc1NC(=O)CSC1=Nc2ccccc2C2=NC(Cc3ccccc3)C(=O)N12` (stereo not given) is inactive: -18.5%; for `Cc1ccc(OCc2nc(C#N)c(NCCc3ccccc3)o2)cc1` it is inactive: -15.2%; for `CCC(Sc1ncc(S(=O)(=O)c2ccc(Cl)cc2)c(=O)[nH]1)C(=O)Nc1ccc(OC)cc1` (stereo not given) it is inactive: -11%.
The figure for `Cc1ccc(NC(=O)CCCn2c(=O)c3cccn3c3ccccc32)cc1Cl` is inactive: -11.9%.
Regarding `CCCc1nn2c(=O)cc(COC(=O)C3CCCCC3)nc2s1`, the “activity change, negative = inhibition” value was inactive: -16.3%.
On to `COc1ccc(-c2nn(-c3ccc(F)cc3)c3c2cnc2ccc(F)cc23)cc1OC`, for which the “activity change, negative = inhibition” value is inactive: -3.83%.
The figure for `COc1ccc(OCC(=O)Nc2ccc(Cl)c(-c3nc4ncccc4o3)c2)cc1` is inactive: 11.1%; for `COC(=O)c1ccccc1NC(=O)c1oc2ccc3c(c2c1C)C(=O)CC(C)(C)O3` it is inactive: -8.99%.
For `COCCn1c(SCC(=O)c2c(C)[nH]c3ccccc23)nc2cc(C(=O)NC(C)C)ccc2c1=O`, the “activity change, negative = inhibition” value was inactive: -6.48%.
The figure for `CCOc1ccc(CCNC(=O)Cn2ccc3cc(S(=O)(=O)N4CCCCC4)ccc32)cc1` is inactive: -29.8%; for `CCN(CCCNC(=O)c1cc(Nc2ccc(OC)cc2)nc2ccccc12)c1cccc(C)c1` it is inactive: -6.07%; for `COc1cccc(CNC(=O)c2ccc3c(c2)N(Cc2ccc(F)cc2Cl)C(=O)c2ccccc2S3)c1` it is inactive: -19.7%.
For `Cc1ccc(Cl)cc1NC(=O)Nc1cn(CC(C)C)c(=O)c2ccccc12` the value was inactive: -7.13%; for `Cc1ccccc1CN1C(=O)c2ccccc2Sc2ccc(C(=O)NCc3ccccc3)cc21`, inactive: -30.9%; for `Cc1cccc(C)c1NC(=O)Cn1c(=O)n(Cc2ccccc2Cl)c(=O)c2cccnc21`, inactive: -1.46%.
For `Cc1ccc(-c2nc(S(=O)(=O)c3ccc(C)cc3)c(SCC(=O)c3ccccc3)o2)cc1` the value was inactive: -21.5%; for `CCN(C(=O)CSc1nc2ccccc2n1Cc1ccccc1C#N)c1ccccc1`, inactive: -11.5%; for `COc1ccc(-n2nc(C(=O)Nc3ccc(C)cn3)c3c4ccccc4n(C)c3c2=O)cc1Cl`, inactive: -6.79%.
Take `CCOC(=O)c1ccc(NC(=O)CSc2nnc(-c3ccncc3)n2-c2ccccc2)cc1`: the “activity change, negative = inhibition” value is inactive: -9.39%.
For `CCOC(=O)c1ccccc1NC(=O)c1cnn(-c2ccc(OC)cc2)c1C1CCN(C(=O)OC(C)(C)C)CC1` the value was inactive: -3.21%; for `Cc1ccc2c(c1)c(=O)c1ccccc1n2CCCC(=O)Nc1ccc(Cl)cc1C`, inactive: -5.8%.
On to `CCOc1ccc(CNC(=O)c2cnc3c(C)cccn3c2=O)cc1`, for which the “activity change, negative = inhibition” value was inactive: 10.6%.
For `N#C/C(=C\c1ccccc1F)c1nc2ccccc2c(=O)[nH]1` the value was inactive: -1.42%; for `CC(=O)c1ccc(NC(=O)CN2C(=O)CCc3cc(S(=O)(=O)N4CCC(C)CC4)ccc32)cc1`, inactive: -17.6%; for `COc1cccc(NC(=O)CCc2nnc3n(CC(C)C)c(=O)c4ccccc4n23)c1`, inactive: -0.484%.
The figure for `O=C(Nc1ccc(Cl)c(C(F)(F)F)c1)c1cc2nc(-c3ccc4c(c3)OCO4)cc(C(F)(F)F)n2n1` is inactive: -11.8% [at 11.5 µM].
For `COc1ccc(NC(=O)CSc2n[nH]c(-c3ccccc3)n2)cc1Cl` the value was inactive: -17.2%; for `O=C(Nc1ccccc1F)c1oc2ccccc2c1NC(=O)C12CC3CC(CC(C3)C1)C2`, inactive: -3.71%; for `CCOC(=O)c1noc2nc(C)n(CC(=O)Nc3ccc(Br)cc3C)c(=O)c12`, inactive: -9.84%.
Consider `COc1ccc(OC)c(-n2cnc3cc(C(=O)NCCc4ccccc4)ccc32)c1`, for which the “activity change, negative = inhibition” value was inactive: 6.85%.
Take `CC1(CN2CCC(n3c(=O)[nH]c4ccccc43)CC2)OCc2ccccc2-n2cccc21` (stereo not given): the activity change, negative = inhibition result is “inactive”.
For `Cc1ccc(CN(C(=O)c2ccc([N+](=O)[O-])cc2)c2ccccn2)cc1` the value was inactive: -0.987%; for `NC(=O)c1noc([C@H](CCCC2CCCCC2)CC(=O)NO)n1`, inactive: 15.1%; for `CC(C)OC(=O)c1c(NC(=O)c2cc3nc(-c4ccccc4)cc(C(F)(F)F)n3n2)sc2c1CCCC2`, inactive: -12.7%.
The figure for `Cc1ccc(-c2nnc3ccccc3c2C(=O)Nc2cccc(C(F)(F)F)c2)cc1` is inactive: 26.8%; for `CC1=C(C(=O)Nc2ccc(C)cc2C)C(c2ccc[nH]2)n2ncnc2N1` (stereo not given) it is inactive: -12.9%.
For `CSc1nnc2c(n1)OC(c1cccc(O)c1Cl)Nc1ccccc1-2` (stereo not given) the value was inactive: 4.57%.
For `N#Cc1cc2c(=O)n3ccccc3nc2n(-c2nnc(SCc3ccccc3F)s2)c1=O`, the “activity change, negative = inhibition” value is inactive: -7.19%.
The figure for `CCOC(=O)C1CCCN(S(=O)(=O)c2ccc3c(c2)N(C)C(=O)CC(=O)N3C)C1` (stereo not given) is inactive: -12.2%; for `O=C(Cn1ncc2c3ccccc3n(Cc3ccc(Cl)cc3)c2c1=O)NC1CCCCCC1` it is inactive: 2.11%.
For `CCc1ccc(CNC(=O)c2cnc3sc(N(CC)CC)nn3c2=O)cc1` the value was inactive: -9.48%; for `COCCCNC(=O)Cn1c(=O)n(-c2ccc(Cl)cc2)c(=O)c2c3c(sc21)CCCCC3`, inactive: -11.6%; for `COc1ccc(CCNC(=O)CN2C(=O)COc3ccc(S(=O)(=O)N4CCCCCC4)cc32)cc1OC`, inactive: -17%.
The figure for `CCOc1ccc(-n2c(=O)c3sc4ccccc4c3n(Cc3ccc(F)cc3)c2=O)cc1` is inactive: -3.84%; for `Cc1ccc(NC(=O)c2ccc(CN3CC(=O)N4CCCCC4C3=O)cc2)cc1C` (stereo not given) it is inactive: -20.3%.
For the compound `CCc1ccccc1NC(=O)C(=O)NCCc1sc(-c2cccc(C)c2)nc1C`, the “activity change, negative = inhibition” value was inactive: -18.3%.
For `CC(C)c1cnc2c(c1SCC(=O)Nc1cccc([N+](=O)[O-])c1)c(=O)n(C)c(=O)n2C` the value was inactive: -25.6%.
For `CCn1c(SCC(=O)Nc2ccc(C)c(C)c2)nnc1-c1nonc1NC(C)=O` the value was inactive: -20.4%.
The figure for `COCCCNc1ncnc2c1nnn2C` is inactive: 9.61%.
Consider `CCCCC(CC)Cn1c(Oc2ccccc2)nc2c1c(=O)n(C)c(=O)n2C` (stereo not given), for which the “activity change, negative = inhibition” value is inactive: -15.9%.
For `Cc1[nH]c2c(C)cccc2c1CCNC(=O)c1cc2ccccc2oc1=O` the value was inactive: -1.5%; for `COCCn1c(SCC(=O)c2c[nH]c3ccccc23)nc2cc(C(=O)NCC(C)C)ccc2c1=O`, inactive: -25.5%.
The figure for `Cc1ccc(O)c(NC(=O)c2nc3nc(C)cc(C(F)F)n3n2)c1` is inactive: 3.5%.
